Laboratory results reported in the supplement of paper PMC8948288.
Shown are siRNA guide strands that differ only in the seed, positions 2 to 7.

Tests used:
GL261 = assay: cell viability relative to siNT1 (ATP content); H4 human neuroglioma and GL261 mouse glioma; higher = less toxic; conditions: siRNA concentration 25 nM; 96 h; mouse
H4 = assay: as above; conditions: siRNA concentration 10 nM; 96 h; human
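Further: cells reverse transfected with siRNA duplexes via lipid reagent, ATP read by luminescence, triplicate wells, values scaled to mean viability with non-targeting control siNT1.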

Sequence | cell viability (GL261) [%] | cell viability (H4) [%]
UUUGACUACAUGUAAACCA | 51.6 | 81.4
UUUGAGAACAUGUAAACCA | 52.1 | 97.8
UUUGAGCACAUGUAAACCA | 32.7 | 73.5
UUUGAGGACAUGUAAACCA | 50.4 | 59.6
UUUGAGUACAUGUAAACCA | 42.3 | 88.1
UUUGAUAACAUGUAAACCA | 59.6 | 98.5
UUUGAUCACAUGUAAACCA | 54.7 | 76.2
UUUGAUGACAUGUAAACCA | 43.8 | 95.9
UUUGAUUACAUGUAAACCA | 43.5 | 75.4
UUUGCAAACAUGUAAACCA | 49.1 | 99.3
UUUGCACACAUGUAAACCA | 37.8 | 69.2
UUUGCAGACAUGUAAACCA | 57.3 | 88.8
UUUGCAUACAUGUAAACCA | 34.7 | 73.8
UUUGCCAACAUGUAAACCA | 56 | 62.7
UUUGCCCACAUGUAAACCA | 42 | 53.1
UUUGCCGACAUGUAAACCA | 39.1 | 77.8
UUUGCCUACAUGUAAACCA | 12.9 | 57
UUUGCGAACAUGUAAACCA | 61.2 | 96.6
UUUGCGCACAUGUAAACCA | 37.5 | 85.5
UUUGCGGACAUGUAAACCA | 48.7 | 83
UUUGCGUACAUGUAAACCA | 45.6 | 94.1
UUUGCUAACAUGUAAACCA | 56.3 | 111
UUUGCUCACAUGUAAACCA | 30.8 | 91.6
UUUGCUGACAUGUAAACCA | 40.9 | 85

Sequence | cell viability (GL261) [%] | cell viability (H4) [%]
UUUGCUUACAUGUAAACCA | 64.9 | 102
UUUGGAAACAUGUAAACCA | 64.9 | 88.2
UUUGGACACAUGUAAACCA | 53.2 | 64.2
UUUGGAGACAUGUAAACCA | 63.9 | 77.6
UUUGGAUACAUGUAAACCA | 42.2 | 96.3
UUUGGCAACAUGUAAACCA | 22.6 | 79
UUUGGCCACAUGUAAACCA | 35.5 | 45.8
UUUGGCGACAUGUAAACCA | 50.4 | 98.5
UUUGGCUACAUGUAAACCA | 17.3 | 74.7
UUUGGGAACAUGUAAACCA | 50.2 | 90.5
UUUGGGCACAUGUAAACCA | 21.6 | 59.3
UUUGGGGACAUGUAAACCA | 52.4 | 64.3
UUUGGGUACAUGUAAACCA | 51.7 | 68.4
UUUGGUAACAUGUAAACCA | 69.6 | 90.5
UUUGGUCACAUGUAAACCA | 37.2 | 73.3
UUUGGUGACAUGUAAACCA | 45.3 | 86.3
UUUGGUUACAUGUAAACCA | 60.8 | 94.2
UUUGUAAACAUGUAAACCA | 67.8 | 110
UUUGUACACAUGUAAACCA | 61.2 | 88.9
UUUGUAGACAUGUAAACCA | 52.6 | 80.6
UUUGUAUACAUGUAAACCA | 46.7 | 85.9
UUUGUCAACAUGUAAACCA | 73.3 | 66.8
UUUGUCCACAUGUAAACCA | 34.2 | 70.3
UUUGUCGACAUGUAAACCA | 68.7 | 108

Sequence | cell viability (GL261) [%] | cell viability (H4) [%]
UUUGUCUACAUGUAAACCA | 63.1 | 70.9
UUUGUGAACAUGUAAACCA | 35.9 | 95.1
UUUGUGCACAUGUAAACCA | 21.9 | 81.6
UUUGUGGACAUGUAAACCA | 38.6 | 70.3
UUUGUGUACAUGUAAACCA | 25 | 92
UUUGUUAACAUGUAAACCA | 46.1 | 97.4
UUUGUUCACAUGUAAACCA | 18.3 | 60.1
UUUGUUGACAUGUAAACCA | 54 | 90.3
UUUGUUUACAUGUAAACCA | 40.1 | 76.7
UUUUAAAACAUGUAAACCA | 61.7 | 77.4
UUUUAACACAUGUAAACCA | 47.4 | 86.6
UUUUAAGACAUGUAAACCA | 59.4 | 77.1
UUUUAAUACAUGUAAACCA | 59.1 | 87.8
UUUUACAACAUGUAAACCA | 48.4 | 92.2
UUUUACCACAUGUAAACCA | 25.9 | 64.4
UUUUACGACAUGUAAACCA | 56.4 | 107
UUUUACUACAUGUAAACCA | 53.3 | 82.3
UUUUAGAACAUGUAAACCA | 56.6 | 109
UUUUAGCACAUGUAAACCA | 28.5 | 58
UUUUAGGACAUGUAAACCA | 33.6 | 93.2
UUUUAGUACAUGUAAACCA | 53.8 | 95
UUUUAUAACAUGUAAACCA | 55.9 | 101
UUUUAUCACAUGUAAACCA | 21.5 | 74.3
UUUUAUGACAUGUAAACCA | 45.8 | 101

Sequence | cell viability (GL261) [%] | cell viability (H4) [%]
UUUUAUUACAUGUAAACCA | 44.7 | 101
UUUUCAAACAUGUAAACCA | 42.7 | 101
UUUUCACACAUGUAAACCA | 51.1 | 96.9
UUUUCAGACAUGUAAACCA | 37 | 107
UUUUCAUACAUGUAAACCA | 54.9 | 98.5
UUUUCCAACAUGUAAACCA | 40.3 | 96.7
UUUUCCCACAUGUAAACCA | 49.9 | 48.5
UUUUCCGACAUGUAAACCA | 51.1 | 102
UUUUCCUACAUGUAAACCA | 13.4 | 52.9
UUUUCGAACAUGUAAACCA | 50.7 | 90.3
UUUUCGCACAUGUAAACCA | 20.2 | 81.2
UUUUCGGACAUGUAAACCA | 50.3 | 88.7
UUUUCGUACAUGUAAACCA | 52.2 | 85.1
UUUUCUAACAUGUAAACCA | 68.5 | 77.2
UUUUCUCACAUGUAAACCA | 19.6 | 65.4
UUUUCUGACAUGUAAACCA | 49.6 | 87
UUUUCUUACAUGUAAACCA | 62.3 | 97.8
UUUUGAAACAUGUAAACCA | 62.6 | 97.4
UUUUGACACAUGUAAACCA | 44.1 | 60.9
UUUUGAGACAUGUAAACCA | 66.1 | 100
UUUUGAUACAUGUAAACCA | 63.7 | 90.2
UUUUGCAACAUGUAAACCA | 37.7 | 91.5
UUUUGCCACAUGUAAACCA | 9.55 | 28.4
UUUUGCGACAUGUAAACCA | 46.6 | 89

Sequence | cell viability (GL261) [%] | cell viability (H4) [%]
UUUUGCUACAUGUAAACCA | 20.9 | 63
UUUUGGAACAUGUAAACCA | 63.9 | 84.4
UUUUGGCACAUGUAAACCA | 7.5 | 30.5
UUUUGGGACAUGUAAACCA | 44.4 | 67.6
UUUUGGUACAUGUAAACCA | 36.7 | 73.2
UUUUGUAACAUGUAAACCA | 43.6 | 106
UUUUGUCACAUGUAAACCA | 56.9 | 77.2
UUUUGUGACAUGUAAACCA | 65.2 | 100
UUUUGUUACAUGUAAACCA | 79.1 | 96.7
UUUUUAAACAUGUAAACCA | 64.9 | 106
UUUUUACACAUGUAAACCA | 80.3 | 98.2
UUUUUAGACAUGUAAACCA | 59.9 | 104
UUUUUAUACAUGUAAACCA | 71.2 | 104
UUUUUCAACAUGUAAACCA | 66.6 | 100
UUUUUCCACAUGUAAACCA | 10.2 | 47.2
UUUUUCGACAUGUAAACCA | 56.3 | 84.4
UUUUUCUACAUGUAAACCA | 37.8 | 88.4
UUUUUGAACAUGUAAACCA | 64.9 | 94.5
UUUUUGCACAUGUAAACCA | 24.4 | 76.6
UUUUUGGACAUGUAAACCA | 26.3 | 82.2
UUUUUGUACAUGUAAACCA | 39.5 | 95.2
UUUUUUAACAUGUAAACCA | 64.4 | 89.1
